Reference: article PMC4336329 (PLoS ONE, 2015)
About 2,200 (0.71%) of roughly 310,000 compounds showed an effect of 50% or more. Effects have a minus sign here. The list shows a part of the results.

What follows are compounds tested against human ether-à-go-go-related gene (hERG) potassium channel (human, UniProt Q12809) (assay: primary screen, population patch clamp on CHO cells stably expressing hERG).
human ether-à-go-go-related gene (hERG) potassium channel, sequence (Q12809 whole entry, looked up): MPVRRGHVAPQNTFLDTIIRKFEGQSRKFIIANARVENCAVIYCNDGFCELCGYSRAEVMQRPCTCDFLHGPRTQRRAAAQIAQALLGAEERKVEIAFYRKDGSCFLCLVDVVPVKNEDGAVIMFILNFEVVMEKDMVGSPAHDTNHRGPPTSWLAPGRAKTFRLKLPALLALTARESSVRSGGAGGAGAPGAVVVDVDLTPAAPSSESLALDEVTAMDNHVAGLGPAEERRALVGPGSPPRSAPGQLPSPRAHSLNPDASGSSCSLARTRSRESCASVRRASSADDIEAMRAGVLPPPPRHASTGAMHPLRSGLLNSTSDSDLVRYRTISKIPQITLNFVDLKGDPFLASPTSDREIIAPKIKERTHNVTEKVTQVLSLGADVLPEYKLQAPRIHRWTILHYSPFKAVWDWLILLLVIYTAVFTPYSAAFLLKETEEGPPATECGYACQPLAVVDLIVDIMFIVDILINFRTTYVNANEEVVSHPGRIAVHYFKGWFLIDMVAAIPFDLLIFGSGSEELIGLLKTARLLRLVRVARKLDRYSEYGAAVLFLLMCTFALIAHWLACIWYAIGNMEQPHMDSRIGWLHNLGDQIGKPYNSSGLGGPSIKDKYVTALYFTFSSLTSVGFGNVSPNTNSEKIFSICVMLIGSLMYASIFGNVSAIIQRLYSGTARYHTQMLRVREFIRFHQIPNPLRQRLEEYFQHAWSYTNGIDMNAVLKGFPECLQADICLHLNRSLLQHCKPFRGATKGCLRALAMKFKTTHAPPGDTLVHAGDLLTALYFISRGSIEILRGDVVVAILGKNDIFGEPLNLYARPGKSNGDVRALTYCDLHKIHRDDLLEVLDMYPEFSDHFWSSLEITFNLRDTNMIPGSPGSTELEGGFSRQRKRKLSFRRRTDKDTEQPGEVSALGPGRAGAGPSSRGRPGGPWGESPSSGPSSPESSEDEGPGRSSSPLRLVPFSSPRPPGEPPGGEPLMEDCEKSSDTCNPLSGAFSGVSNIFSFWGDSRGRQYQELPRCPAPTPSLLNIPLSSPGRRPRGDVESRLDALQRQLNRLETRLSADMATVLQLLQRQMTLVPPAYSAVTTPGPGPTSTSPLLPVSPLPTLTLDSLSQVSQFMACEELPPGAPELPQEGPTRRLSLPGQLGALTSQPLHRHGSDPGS

Compound | hERG current change (%, negative = inhibition) at 1uM [%]
CCOC(=O)Cc1cc(=O)[nH]c(=O)[nH]1 | 9.73
O=C(CCC1CCCN(C(=O)Cn2cnnn2)C1)NCc1ccc(F)c(F)c1 (stereo not drawn) | 5.32
CC(C)c1nnc(NC(=O)C2CCCN2C(=O)Nc2ccccc2F)s1 (stereo not drawn) | 8.97
Cc1cccc(NS(=O)(=O)c2ccc(C(=O)NCCCN3CCCC3=O)cc2)c1C | 11.8
O=C(CN1C(=O)NC(Cc2ccccc2)C1=O)Nc1ccccc1OC(F)F (stereo not drawn) | 1.65
Cn1c(C(=O)N2CCCc3ccccc32)cc2c(=O)n3ccccc3nc21 | 1.34
Cc1nnc(NC(=O)c2ccccc2-c2ccccc2C(=O)O)s1 | 6.34
Cc1ccc(NC(=O)C2CC(=O)N(Cc3ccccc3)C2)cc1S(=O)(=O)N1CCCCCC1 (stereo not drawn) | -0.853
Cc1cccc(CSCCNC(=O)Nc2ccccc2)c1 | 1.59
COc1ccc(N2CCN(C(=O)CN3C(=O)c4ccccc4S3(=O)=O)CC2)cc1 | 16
Cc1cc(/C=C2\SC(N)=NC2=O)c(C)n1-c1ccccc1 | 13.4
CCOc1cc(-n2cnnn2)c(OCC)cc1NC(=O)c1cnccn1 | 11.1
Nc1nc2ccc(C(=O)N3CCCCC3)cc2s1 | 8.66
CC(NCc1ccc2c(c1)OCO2)C(=O)NC1CCCCC1.O=C(O)C(=O)O (stereo not drawn) | 21.5
CN(Cc1nc(Cc2ccccc2F)no1)CC1(N2CCOCC2)CCCCC1 | -1.12
Clc1ccccc1OCc1nc(-c2ccncc2)no1 | 2.87
CCN(CC)CCCNC(=O)CCn1nc(-c2ccccc2)ccc1=O | -4
COc1cc(C(=S)N2CCCCC2)ccc1O | 21
CC(=O)c1cccc(NC(=O)CCCOc2ccc(C)cc2)c1 | 8.46
Cc1nc2n(n1)C(O)c1cc([N+](=O)[O-])ccc1S2 (stereo not drawn) | 3.4
COc1ccc(-c2nc3ccccc3c(=O)n2CCCn2ccnc2)cc1 | -18.4
COc1ccccc1CNC(=O)c1c(-c2ccccc2)nn(-c2ccccc2)c1C | 0.118

Compound | hERG current change (%, negative = inhibition) at 1uM [%]
COc1cccc(-n2ccnc2SCC(=O)Nc2ccccc2)c1 | 6.19
Cc1cccc(C(=O)Nc2nnc(SCC(=O)NC3CC3)s2)c1 | 13.9
Cc1cc(N2CCN(c3ccccc3)CC2)nc(NCc2ccccc2)n1 | 11.2
CCN1C(=O)C(CC(=O)N2CCN(C(c3ccccc3)c3ccccc3)CC2)N(CC)C1=O (stereo not drawn) | 7.42
O=C1CCCN1CCCNc1nc2c(S(=O)(=O)c3ccccc3)nnn2c2ccc(Cl)cc12 | 1.08
COc1ccc(C=O)cc1COc1c(F)c(F)cc(F)c1F | 9.41
O=C(CN1CCN(S(=O)(=O)c2ccc(F)c(F)c2)CC1)Nc1ccccc1C(=O)NC1CC1 | -23.7
CCOC(=O)c1ccc(NC(=O)N2CCN(Cc3cccc(F)c3)CC2)cc1 | 0.624
CC(C)CN(C(=O)Cn1nnc(-c2ccc(F)cc2)n1)C1CCS(=O)(=O)C1 (stereo not drawn) | 7.89
CCC1CCCCN1C(=S)Nc1ccc(SC(F)F)cc1 (stereo not drawn) | -17.1
O=C(NCCCn1ccnc1)C1CC2CCC1C2 (stereo not drawn) | -0.331
Cc1cccc(C(=O)NCC(=O)NC2CCN(Cc3ccccc3)CC2)c1 | 15.2
Cc1ccc2occ(-c3nn[nH]n3)c(=O)c2c1 | 10.3
CCNC(=S)N(CCc1c(C)[nH]c2ccccc12)Cc1cc(OC)c(OC)c(OC)c1 | 8.89
CCCC(=O)Nc1nnc(SCC(=O)NCc2ccco2)s1 | 12.1
Cc1cc(C)n(-c2ccc3nnc(C)n3n2)n1 | 11.7
CCOc1ccc2[nH]c(=O)c(CN(Cc3nnnn3Cc3ccco3)C3CCCCC3)cc2c1 | 10.7
Cc1cc(C)c2cccc(NC(=S)NC(=O)c3ccccc3)c2n1 | -21.2
O=C(COC(=O)c1ccc(F)cc1F)NC(=O)Nc1ccc2c(c1)OCCO2 | 14.1
Cc1ccnc(NS(=O)(=O)c2ccc(NC(=O)Cc3ccc(F)cc3)cc2)n1 | 14.5
COc1cc(C)c(S(=O)(=O)NC2CC(C)(C)NC(C)(C)C2)cc1C | 9.51
CC(=O)Nc1ccc(C(=O)N/C(=C/c2ccccc2)C(=O)NCc2ccco2)cc1 | 12.4

Compound | hERG current change (%, negative = inhibition) at 1uM [%]
CCN(CC)Cc1c(C(=O)N/N=C/c2ccc(OCc3ccccc3C)cc2)nnn1-c1nonc1N | -1.92
O=C(C1=C[C@@H](c2ccc(C(F)(F)F)cc2)C[C@@H](OCc2ccc(CO)cc2)O1)N1CCOCC1 | 2.55
O=C(CSCc1ccc([N+](=O)[O-])cc1)NCCSCc1ccccc1 | -14.8
Cc1cc(C)c(OCCCCN(C)C)c(Br)c1.O=C(O)C(=O)O | 1.33
COCCCNC(=O)/C=C/c1cccc(Cl)c1 | 7.31
O=c1c(F)cn(C2CCCO2)c(=O)n1Cc1c(Cl)cccc1Cl (stereo not drawn) | -1.82
CCN(CC)C(=O)OCc1c(-c2cccc(OC)c2)ncc2ccccc12 | 10.4
CCOC(=O)N1CCc2c(sc3c2c(=O)n(Cc2ccccc2)c(=O)n3Cc2cccc(C)c2)C1 | 5.19
O=C(c1ccccc1F)N1CCC(N2CCCCCC2)CC1 | -2.42
CC(=O)Nc1cccc(C(=O)N/N=C/c2cccc(C)n2)c1 | 16
Cc1c(C(=O)N(Cc2ccc(Cl)cc2)C2CCS(=O)(=O)C2)oc2ccccc12 (stereo not drawn) | 6.06
COc1ccc(-n2cnnc2SCC(=O)Nc2nc(C)c(Cl)cc2Cl)cc1 | -8.71
COCc1c(C(=O)N/N=C\c2ccccn2)nnn1-c1nonc1N | 14.5
CCOc1ccc(-c2c(C(=O)N/N=C/c3cccc(Br)c3)nnn2-c2nonc2N)cc1 | 9.11
CN(CCOc1ccc(-c2ccn(S(=O)(=O)c3cccc4ccccc34)n2)cc1)c1ccccn1 | 12.5
CCCCn1c(N)c(N(CC(C)C)C(=O)CSc2nnc(C)n2-c2ccc(OC)cc2)c(=O)[nH]c1=O | 9.69
NC(=O)c1cc(S(=O)(=O)N2CCCC2)ccc1OCCOc1ccccc1 | 7.4
Nc1cccc(-c2nc3ncccc3o2)c1 | 14.4
Cc1cccc(C(=O)NCC(c2cccs2)N2CCOCC2)c1 (stereo not drawn) | 17.6
CCn1ncc(/C=N\NC(=O)c2csc3ccccc23)c1C | 10.1
O=C(CSc1n[nH]c(=O)n1C1CC1)c1ccc(F)cc1 | 7.86
COc1ccc(C(=O)NCC(c2cccnc2)N2CCN(c3ccc(F)cc3)CC2)cc1OC (stereo not drawn) | -18.3

Compound | hERG current change (%, negative = inhibition) at 1uM [%]
COc1ccc2c(Cl)c(C(N)=O)sc2c1 | 5.78
CC1CCCC(C)N1C(=O)Cn1cnc2cc([N+](=O)[O-])ccc2c1=O (stereo not drawn) | 7.78
Cc1cccc(CCN2CCN=C2Nc2ccccc2)c1 | 1.25
NC(N)=NS(=O)(=O)c1ccc(NC(=S)NC(=O)c2ccncc2)cc1 | 4.18
Cc1nnc(SCC(=O)N(C)c2ccccc2)n1-n1cccc1 | 12.9
O=C(CCC(=O)N1CCN(S(=O)(=O)c2ccc(Cl)cc2)CC1)NCc1ccccc1 | 10.1
O=C(NC1CCCC1)C(c1ccccn1)N(Cc1ccc(F)cc1)C(=O)c1csnn1 (stereo not drawn) | 7.39
CC1(C)CC(=O)C2=C(C1)N(c1ccc(F)cc1)C(=O)C2(NC(=O)c1ccccc1)C(F)(F)F (stereo not drawn) | 10.7
O=c1c2ccccc2c(C=NCCO)c(O)n1-c1ccccc1 | 11
Cn1nnnc1Sc1ncnc2scc(-c3ccccc3Br)c12 | 17.9
N#CCc1nc(C(c2ccccc2)c2ccccc2)no1 | 11.3
Cc1ccc(OCc2nnc(SCC(=O)O)n2-c2ccccc2)cc1 | 15.1
COc1ccc(CCn2c(-c3ccc(F)cc3)nc3c(c(=O)c4ccccc4n3C)c2=O)cc1OC | 11.1
O=C(NC(=S)NNC(=O)[C@H]1C[C@@H]1c1ccccc1)c1ccc(F)cc1 | 8.06
Cn1cc(Br)c(C(=O)N2CCN(c3cccc(Cl)c3)CC2)n1 | 1.75
Nc1c(S(=O)(=O)[O-])cc(NC(=O)c2ccccc2)c2c1C(=O)c1ccccc1C2=O.[Na+] | 7.18
CCOC(=O)C1=NNC(C(=O)c2ccccc2)C1c1ccc(Cl)cc1 (stereo not drawn) | 14.8
CCOc1ccc(S(=O)(=O)NCC(=O)N(C)Cc2cccnc2)cc1 | 4.32
O=[N+]([O-])c1ccc(Nc2ccc(N3CCOCC3)cc2)c([N+](=O)[O-])c1 | 12.6
O=C(C1CCN(S(=O)(=O)N2CCCCC2)CC1)N1CCCCC1 | 7.74
O=C(Nc1cccnc1Oc1ncnc2cc(Cl)ccc12)c1ccc(F)cc1 | 2.09
